Among all 410,000 compounds or so, about 6,400 (1.6%) were called active. The inconclusive results got no clear call from the source; some entries with a clear call stand among them for comparison. The call rests on the fitted dose curve; in most records, active means well fitted inhibition curve with a large enough effect; inconclusive means small, poorly fitted or top-dose-only effect; inactive means no such curve, though single readings can be large or run the other way. Potencies of inconclusive entries are left out as doubtful fits.
target: Glucagon-like peptide 1 receptor (Homo sapiens) (UniProt P43220); assay: qHTS of GLP-1 Receptor Inverse Agonists (Inhibition Mode); details: HEK293 GLP-1R CRE-luciferase, luminescence, 24 h; Potency: GLP-1R form is constitutively active unless noted; activity change, negative = inhibition: at 38.3 µM (top of the series) unless noted; further: nearly all actives have a fitted effect of over 55% in size
Sequence of UniProt P43220 (P43220 whole entry, looked up): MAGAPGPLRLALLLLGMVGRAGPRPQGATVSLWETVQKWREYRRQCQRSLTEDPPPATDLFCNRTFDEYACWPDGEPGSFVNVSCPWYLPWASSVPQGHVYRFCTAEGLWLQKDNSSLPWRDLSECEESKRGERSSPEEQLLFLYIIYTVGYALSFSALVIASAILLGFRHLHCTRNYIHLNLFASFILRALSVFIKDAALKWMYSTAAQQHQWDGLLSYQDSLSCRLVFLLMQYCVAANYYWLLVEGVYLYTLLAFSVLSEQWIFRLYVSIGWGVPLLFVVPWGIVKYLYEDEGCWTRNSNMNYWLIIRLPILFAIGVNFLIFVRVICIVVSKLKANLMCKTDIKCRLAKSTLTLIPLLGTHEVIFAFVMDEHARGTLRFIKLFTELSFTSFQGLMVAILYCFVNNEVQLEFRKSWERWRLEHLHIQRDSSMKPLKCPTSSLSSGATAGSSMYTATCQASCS
In short: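 Inverse agonism was detected as reduced cAMP-driven luciferase luminescence after 24 h compound treatment. The cells were HEK293 clones expressing constitutively active human GLP-1R with the reporter. Reporter-only and GPR119 cell lines served as counterscreen controls.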
On the % scale 0 is the no-effect control and ±100 the full control effect; potency means the concentration at half of the fitted maximal effect; tags describe the fitted curve by direction and shape.

| SMILES | Potency | activity change, negative = inhibition |
| --- | --- | --- |
| Cc1cccc(CN2C(=O)CN=C(c3ccccc3Cl)c3cc(Cl)ccc32)c1 | inconclusive [inhibitor, partial curve, poor fit] |  |
| CN1C(=O)c2ccccc2Sc2ccc(NC(=O)NCc3ccc(Cl)cc3)cc21 | inconclusive [inhibitor, full curve, poor fit] |  |
| COC1C(C)OC(OC2CC(C)(O)Cc3cc4c(c(O)c32)C(=O)c2c(O)cc3c(c2C4=O)OC2OC3(C)C(O)C(N(C)C)C2O)C(OC)C1(C)OC (configuration not stated) | inconclusive [inhibitor, partial curve, poor fit] |  |
| O=[N+]([O-])c1ccc(NC2CCN(Cc3ccccc3)CC2)c2ccncc12 |  | inactive: 6.73% |
| CCCSc1ncc(Cl)c(C(=O)N(Cc2ccccc2)c2ccc(OC)cc2)n1 | inconclusive [inhibitor, partial curve, poor fit] |  |
| CCCCCCC(Cl)(Cn1ccnc1)c1ccccc1 (configuration not stated) | inconclusive [inhibitor, partial curve, poor fit] |  |
| COc1cc(C)cc(CN2CC=C(c3ccccc3)CC2)c1O | inconclusive [inhibitor, single point] |  |
| COc1ccc(CNCCc2c(C)[nH]c3ccc(OC(F)(F)F)cc23)c(OC)c1 | active: 2 µM [setting not given] |  |
| COCCNC(=O)c1c(N)n(CCC(C)C)c2nc3ccccc3nc12 | inconclusive [inhibitor, partial curve, poor fit] |  |
| C[C@]12CC[C@H]3C(CCC4(O)CC(O)CC[C@]34C=O)C1=CC[C@H]2c1ccc(=O)oc1 (some centres not stated) | inconclusive [inhibitor, full curve, poor fit] |  |
| CN(C)C1(c2nnnn2-c2ccc(Cl)cc2)CCCCC1 | inconclusive [inhibitor, single point] |  |
| CCCCC1(CC)COP(=O)(OCC(Cl)(Cl)Cl)OC1 (configuration not stated) | inconclusive [inhibitor, single point] |  |
| O=c1[nH]c2ccccc2n1C1CCN(C(c2cccs2)c2nnnn2-c2ccc3c(c2)OCCO3)CC1 (configuration not stated) | inconclusive [inhibitor, full curve, poor fit] |  |
| CCOC(=O)[C@]12Cc3cc(Cl)ccc3[C@H]1N(C)C(=O)c1cc(OC)ccc12 | inconclusive [inhibitor, single point] |  |
| O=[N+]([O-])c1ccc(Cl)c([N+](=O)[O-])c1 | inconclusive [inhibitor, partial curve, poor fit] |  |
| COc1cccc(OC)c1CN1CCCC(C(=O)c2cccc(Cl)c2)C1 (configuration not stated) | inconclusive [inhibitor, single point] |  |
| Cc1cc(N2C(=O)C3CCCN3C2c2ccc(Cl)c(Cl)c2)no1 (configuration not stated) | inconclusive [inhibitor, full curve, poor fit] |  |
| CC(C)Oc1cccnc1N(C)C1CCN(Cc2ccccc2)CC1 | inconclusive [inhibitor, partial curve, poor fit] |  |
| CC1=C(N2CC2)C(=O)C(CO)=C(N2CC2)C1=O | inconclusive [inhibitor, full curve, poor fit] |  |

| SMILES | Potency | activity change, negative = inhibition |
| --- | --- | --- |
| CC(C(=O)c1c[nH]c2ccccc12)N1CCOCC1 (configuration not stated) |  | inactive: 1.72% |
| COC(=O)C1=C(c2ccc(F)cc2OCc2ccccc2)C[C@@H]2CC[C@H]1N2C(=O)NCc1ccco1 | inconclusive [inhibitor, partial curve] |  |
| Cc1nc2ccccc2c(=O)n1-c1ccc(Br)cc1[N+](=O)[O-] | inconclusive [inhibitor, partial curve, poor fit] |  |
| c1cc2c(c(NC3=NCCCS3)c1)CCCC2 | inconclusive [inhibitor, partial curve, poor fit] |  |
| Brc1cc2c(cc1CN1CCN(c3ccccc3)CC1)OCCO2 |  | inactive: 3.68% |
| O=[N+]([O-])c1cccc(CN2CC=C(c3ccc(F)cc3)CC2)c1 | inconclusive [inhibitor, partial curve, poor fit] |  |
| CCC(=O)c1cn(Cc2ccccc2)c2ccccc12 | inconclusive [inhibitor, partial curve, poor fit] |  |
| COc1cc(/C=N/NP(=S)(c2ccccc2)c2ccccc2)ccc1O | inconclusive [inhibitor, single point] |  |
| CCn1cc2nc(SCc3cccc(C(F)(F)F)c3)n(Cc3ccc(OC)cc3)c(=O)c2n1 | inconclusive [inhibitor, single point] |  |
| CN(C)CCNC(=O)c1cccn(Cc2cc(C(F)(F)F)cc(C(F)(F)F)c2)c1=O | inconclusive [inhibitor, partial curve, poor fit] |  |
| CCOC(=O)c1ccccc1OC(=O)NNc1ccccc1 | inconclusive [inhibitor, full curve, poor fit] |  |
| O=C(Nc1ccccc1Cl)OC1CN2CCC1CC2 (configuration not stated) | inconclusive [inhibitor, partial curve, poor fit] |  |
| O=c1[nH]c2ccccc2n1C1CCN(C(CCc2ccccc2)c2nnnn2-c2ccc3c(c2)OCCO3)CC1 (configuration not stated) | inconclusive [inhibitor, full curve] |  |
| CCOc1cc2c(cc1OCC)-n1cccc1C(c1ccc(OC)c(O)c1)NC2 (configuration not stated) | inconclusive [inhibitor, single point] |  |
| Cc1ccc(NC(=O)c2ccc(Cl)c(S(=O)(=O)NCc3ccco3)c2)c(O)c1 | inconclusive [inhibitor, partial curve, poor fit] |  |
| COc1ccc(OC)c(NC(=O)C2C(C(=O)O)C3(Cl)C(Cl)=C(Cl)C2(Cl)C3(Cl)Cl)c1 (configuration not stated) | inconclusive [inhibitor, single point] |  |
| Cc1ccc([C@H]2C[C@H](O)[C@@H](n3cc(COC(=O)c4ccccc4)nn3)CN2C(=O)C2CCCCC2)cc1 | inconclusive [inhibitor, partial curve, poor fit] |  |
| Cc1cccc(C)c1-n1nnnc1C(c1cccs1)N1CCC2(CC1)C(=O)NCN2c1ccccc1 (configuration not stated) | inconclusive [inhibitor, single point] |  |

From PubChem BioAssay AID624417 (National Center for Advancing Translational Sciences (NCATS), 2012)
